# Source: PubChem BioAssay AID504333 (National Center for Advancing Translational Sciences (NCATS), 2011)
# Hit rate of the full screen: of about 360,000 compounds, about 16,000 (4.4%) were called active. Inconclusive means that the source gave no clear call. Such entries were picked first, then a sample of the others. The call rests on the fitted dose curve; in most records, active means well fitted inhibition curve with a large enough effect; inconclusive means small, poorly fitted or top-dose-only effect; inactive means no such curve, though single readings can be large or run the other way. Potencies beside an inconclusive call are fits to weak or partial responses and may not hold up.
# Molecular target: Bromodomain adjacent to zinc finger domain protein 2B (Homo sapiens) (UniProt Q9UIF8)
# Sequence of UniProt Q9UIF8 (Q9UIF8 whole entry, looked up, the tested form may be a part): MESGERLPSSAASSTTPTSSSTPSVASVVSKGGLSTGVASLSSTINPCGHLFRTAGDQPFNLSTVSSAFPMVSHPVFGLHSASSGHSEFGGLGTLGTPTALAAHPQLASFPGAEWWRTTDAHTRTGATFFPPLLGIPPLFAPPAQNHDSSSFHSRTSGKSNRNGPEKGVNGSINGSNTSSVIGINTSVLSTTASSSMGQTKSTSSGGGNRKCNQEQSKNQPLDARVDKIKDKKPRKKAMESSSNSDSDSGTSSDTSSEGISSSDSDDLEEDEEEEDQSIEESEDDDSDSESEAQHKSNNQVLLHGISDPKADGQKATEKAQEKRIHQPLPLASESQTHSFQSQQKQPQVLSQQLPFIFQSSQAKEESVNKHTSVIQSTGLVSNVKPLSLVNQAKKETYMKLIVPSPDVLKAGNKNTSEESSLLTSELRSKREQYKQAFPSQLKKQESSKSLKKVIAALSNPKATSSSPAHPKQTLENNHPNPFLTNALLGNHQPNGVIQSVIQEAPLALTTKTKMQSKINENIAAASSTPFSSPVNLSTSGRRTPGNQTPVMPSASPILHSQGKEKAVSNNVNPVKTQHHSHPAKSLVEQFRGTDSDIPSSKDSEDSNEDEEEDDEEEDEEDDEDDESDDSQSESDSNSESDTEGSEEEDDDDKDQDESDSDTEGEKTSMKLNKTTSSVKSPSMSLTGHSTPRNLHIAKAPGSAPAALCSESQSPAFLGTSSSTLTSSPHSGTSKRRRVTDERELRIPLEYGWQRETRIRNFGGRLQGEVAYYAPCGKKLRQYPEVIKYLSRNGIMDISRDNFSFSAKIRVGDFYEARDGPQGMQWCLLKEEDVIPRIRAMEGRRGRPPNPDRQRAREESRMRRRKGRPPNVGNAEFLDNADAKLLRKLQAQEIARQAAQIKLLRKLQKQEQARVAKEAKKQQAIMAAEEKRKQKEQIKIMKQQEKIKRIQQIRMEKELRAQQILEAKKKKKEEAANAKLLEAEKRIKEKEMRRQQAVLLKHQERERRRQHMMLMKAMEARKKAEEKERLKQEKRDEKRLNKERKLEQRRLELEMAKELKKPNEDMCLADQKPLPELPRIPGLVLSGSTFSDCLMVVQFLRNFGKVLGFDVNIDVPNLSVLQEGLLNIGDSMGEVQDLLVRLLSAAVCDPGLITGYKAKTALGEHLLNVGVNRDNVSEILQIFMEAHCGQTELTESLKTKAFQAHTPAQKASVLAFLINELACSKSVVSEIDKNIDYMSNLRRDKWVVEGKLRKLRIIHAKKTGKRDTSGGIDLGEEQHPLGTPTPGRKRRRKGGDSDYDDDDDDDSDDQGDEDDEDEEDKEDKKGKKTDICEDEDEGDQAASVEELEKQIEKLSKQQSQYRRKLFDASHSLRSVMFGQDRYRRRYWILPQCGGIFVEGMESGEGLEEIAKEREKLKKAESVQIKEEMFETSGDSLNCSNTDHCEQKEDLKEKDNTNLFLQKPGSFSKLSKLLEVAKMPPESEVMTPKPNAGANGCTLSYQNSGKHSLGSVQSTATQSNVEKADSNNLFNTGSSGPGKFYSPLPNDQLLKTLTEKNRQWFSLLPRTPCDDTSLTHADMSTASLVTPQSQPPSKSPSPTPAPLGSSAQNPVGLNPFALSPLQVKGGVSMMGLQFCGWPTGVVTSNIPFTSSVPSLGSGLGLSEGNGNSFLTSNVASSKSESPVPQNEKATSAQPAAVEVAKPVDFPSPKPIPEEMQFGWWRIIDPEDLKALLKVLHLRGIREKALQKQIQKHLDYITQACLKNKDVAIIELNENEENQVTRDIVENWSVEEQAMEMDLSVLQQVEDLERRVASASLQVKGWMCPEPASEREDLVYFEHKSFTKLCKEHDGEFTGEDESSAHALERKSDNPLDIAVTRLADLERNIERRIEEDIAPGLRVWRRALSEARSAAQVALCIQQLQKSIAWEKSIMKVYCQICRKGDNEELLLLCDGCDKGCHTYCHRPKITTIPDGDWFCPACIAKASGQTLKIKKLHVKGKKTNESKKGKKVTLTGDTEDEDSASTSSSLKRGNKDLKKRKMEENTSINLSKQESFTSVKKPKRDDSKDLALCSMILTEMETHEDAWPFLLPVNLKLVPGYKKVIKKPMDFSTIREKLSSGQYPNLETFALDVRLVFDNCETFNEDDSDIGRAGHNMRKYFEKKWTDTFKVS
# Test: qHTS Assay for Inhibitors of BAZ2B; further: nearly all actives have a fitted effect of over 60% in size
# Details: AlphaScreen BAZ2B-H3K14Ac peptide displacement; activity change, negative = inhibition: at 114 µM (top of the series)
# Summary of the method: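 BAZ2B (50 nM) with biotin-H3(5-23)K14Ac peptide (50 nM) in PBS pH 7.4, 0.01% Tween-20, preformed 30 min, then compound 30 min at room temperature; top concentration 110uM. AlphaScreen streptavidin donor/nickel chelate acceptor beads (10 ug/mL final), 20 min dark, signal read.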
# On the % scale 0 is the no-effect control and ±100 the full control effect; potency means the concentration at half of the fitted maximal effect; tags describe the fitted curve by direction and shape.
Compound,Potency,"activity change, negative = inhibition"
Cc1nn(-c2ccccc2)c(OC(=O)c2ccc(Br)cc2)c1S(=O)(=O)c1ccccc1,"inconclusive: 79.4 µM [inhibitor, single point]",–
Cc1ccc(C)c(N2CCN(C(=O)c3cccc(-n4c(C)nc5cccnc54)c3)CC2)c1,"inconclusive: 89.1 µM [inhibitor, single point]",–
O=C(CCc1nc(-c2ccccc2F)no1)Nc1cccc(C(F)(F)F)c1,inactive,–
COc1ccc(CN2C(=O)c3cccnc3C2=O)cc1S(=O)(=O)NC1CCCCC1C (stereo unspecified),"inconclusive: 79.4 µM [inhibitor, partial curve]",–
COc1ccccc1N1CCN(/N=C/c2cc(OC)c(OC)c(OC)c2)CC1,"inconclusive: 44.7 µM [inhibitor, partial curve]",–
CN(C(=O)CSc1cn(CC(=O)N2CCCCCC2)c2ccccc12)c1ccccc1,"inconclusive: 70.8 µM [inhibitor, single point]",–
Cc1ccccc1-n1c(SCc2c(C)noc2C)nnc1-c1cccnc1,inactive,–
CCN(CCCNc1ncnc2nc[nH]c12)c1cccc(C)c1,active: 50.1 µM,–
COc1ccc(N2CCN(CC(O)COc3ccccc3C(C)(C)C)CC2)cc1 (stereo unspecified),active: 31.6 µM,–
CCN(c1ccc(OC)cc1)S(=O)(=O)c1c(C(=O)N2CCCCCC2)c(C)n(C)c1C,inactive,–
Cc1ccc(NCc2cccnc2)cc1,"inconclusive: 35.5 µM [inhibitor, partial curve]",–
CC(=O)Nc1cc(C(=O)NCc2ccccc2)ccc1Sc1ccc(C)cc1,inactive,–
O=C(NC1CCSc2ccccc21)c1ccc([N+](=O)[O-])cc1 (stereo unspecified),inactive,–
O=c1[nH]c2ccc(N=Cc3c(O)ccc4cc(Br)ccc34)cc2[nH]1,"inconclusive: 79.4 µM [inhibitor, single point]",–
CC1CN(C(=O)COC(=O)c2ccc(F)cc2Cl)CC(C)O1 (stereo unspecified),inactive,–
CNS(=O)(=O)c1cn(CC(=O)Nc2ccc(F)cc2F)cc1S(=O)(=O)NC,inactive,–
N#CCCNC(=O)CCN1CCCCC1,inactive,–
O=C(OCC(=O)N1CCN(c2ccccc2)CC1)c1ccccc1NCCO,inactive,–
COc1ccc(N2CCN(S(=O)(=O)c3cc(C)ccc3OC)CC2)cc1,active: 44.7 µM,–
C#CCOCCOCCOCCNc1nc(N2CCN(C(=O)CCCCCCCCCCNC(=O)[C@H]([C@@H](C)CC)n3cc(CCCCCN)nn3)CC2)nc(N2CCN(C(=O)CCCCCCCCCCNC(=O)[C@H](CCCCN)n3cc(CCCC(=O)O)nn3)CC2)n1,"inconclusive: 79.4 µM [inhibitor, single point]",–
COC(=O)C1=C(C)N=C2SC(C)C(=O)N2C1c1ccc(C(=O)OC)cc1 (stereo unspecified),"inconclusive: 79.4 µM [inhibitor, partial curve]",–
Cc1ccc2[nH]cc(C(c3ccccc3)c3cccs3)c2c1 (stereo unspecified),inactive,–
c1ccc(C[C@H]2CN=C(Nc3ccccc3)N2CCCC2CCCC2)cc1,"inconclusive: 56.2 µM [inhibitor, partial curve]",–
O=C(NCC(c1cccs1)N1CCOCC1)c1cc([N+](=O)[O-])ccc1Cl (stereo unspecified),inactive,–

Compound,Potency,"activity change, negative = inhibition"
CCC(CO)Oc1cc(NCc2ccc(OC)cc2)c2ncn(C(C)C)c2c1 (stereo unspecified),"inconclusive: 50.1 µM [inhibitor, partial curve]",–
Cc1cc(C(=O)N2CCCC(Nc3ccc(F)cc3)C2)n(C)n1 (stereo unspecified),inactive,–
CCCC[C@]12Cc3cc(C#N)ccc3C(O1)c1c(c3cc(F)ccc3oc1=O)O2,–,inactive: 2.95% [at 22.9 µM]
CCN1C(=O)/C(=C\N2CCN(c3ccccc3)CC2)SC1=S,"inconclusive: 25.1 µM [inhibitor, full curve]",–
CN(C)CCCN(C(=O)c1ccc2c(c1)CCCC2)c1nc2ccc(F)cc2s1,"inconclusive: 79.4 µM [inhibitor, single point]",–
O=C(CCc1ccccc1)N1CCN(c2ccc([N+](=O)[O-])cc2)CC1,"inconclusive: 79.4 µM [inhibitor, single point]",–
O=C(OCCN1C(=O)c2cccc3c(N4CCOCC4)ccc(c23)C1=O)c1ccc(Cl)cc1,inactive,–
COc1cc(OC)c(C2C=C(C(=O)O)Nc3ncnn32)cc1OC (stereo unspecified),"inconclusive: 89.1 µM [inhibitor, single point]",–
Cc1ccc(C2CCN(C(=O)c3cnn(-c4ccccc4Cl)c3C3CCN(C(=O)OC(C)(C)C)CC3)C2)cc1 (stereo unspecified),inactive,–
CN(C)c1ccc(N=Nc2ccccc2C(=O)OCC(=O)N(C)c2ccccc2)cc1,active: 10 µM,–
O=C(N/N=C/c1cc([N+](=O)[O-])ccc1O)C1CC1,inactive,–
CCOc1ccccc1/C=N/n1c(COc2ccccc2)n[nH]c1=S,"inconclusive: 44.7 µM [inhibitor, partial curve]",–
CCOc1ccc(NC(=O)c2cccc3c2C(=O)N(Cc2cccnc2)C3)cc1,"inconclusive: 89.1 µM [inhibitor, single point]",–
COc1ccc(CN(C(=O)c2ccc(-c3ccccc3)[nH]2)C(C(=O)NC(C)(C)C)c2ccncc2)cc1 (stereo unspecified),"inconclusive: 25.1 µM [inhibitor, full curve, poor fit]",–
COc1ccc(C(=O)/C=C/c2ccc(N3CCCCC3)c([N+](=O)[O-])c2)cc1,active: 3.98 µM,–
COc1ccc(CNC(=O)c2cc3ccccn3n2)c(OC)c1,"inconclusive: 79.4 µM [inhibitor, single point]",–
CC(=O)c1cccc(S(=O)(=O)N2CCC(C(=O)OC3CCOC3=O)CC2)c1 (stereo unspecified),"inconclusive: 89.1 µM [inhibitor, single point]",–
O=C(NCCN1CCN(c2ccc([N+](=O)[O-])cc2)CC1)NCc1ccccc1,"inconclusive: 79.4 µM [inhibitor, single point]",–
CCC(=O)N1CCc2cc(Br)cc(S(=O)(=O)NCCc3ccccc3Cl)c21,inactive,–
COc1ccccc1C(=O)Nc1ccc(-c2nnc(SCC(=O)O)n2C)cc1,"inconclusive: 89.1 µM [inhibitor, single point]",–
COc1ccc(N2CCN(C(=O)Cc3c(C(=O)O)c(C)cn3C)CC2)cc1,inactive,–
COc1ccc(C(CNC(=O)c2ccc(-c3cccc(C(F)(F)F)c3)o2)N2CCOCC2)cc1 (stereo unspecified),"inconclusive: 39.8 µM [inhibitor, full curve, poor fit]",–
COc1ccc(/C=C2\C(=O)ON=C2c2cccc([N+](=O)[O-])c2)cc1,"inconclusive: 70.8 µM [inhibitor, single point]",–
C/C(=N\NC(=O)c1cc(C)nc2ccccc12)c1ccccn1,active: 7.94 µM,–

Compound,Potency,"activity change, negative = inhibition"
Cc1noc(NS(=O)(=O)c2ccc(N/C=C\C(=O)c3cccc4ccccc34)cc2)c1C,active: 50.1 µM,–
COc1ccccc1OCC(=O)N(Cc1ccc(N(C)C)cc1)CC1CCCO1 (stereo unspecified),"inconclusive: 50.1 µM [inhibitor, partial curve]",–
Cc1cc2nn(-c3cccc4ccccc34)nc2cc1N,"inconclusive: 89.1 µM [inhibitor, single point]",–
CCOC(=O)C1CCN(Cc2coc3c(Cl)cc(Cl)cc3c2=O)CC1,"inconclusive: 100 µM [inhibitor, single point]",–
COc1ccc(Nc2ccc3cc(S(=O)(=O)N4CCCC4)ccc3n2)cc1Cl,inactive,–
O=C(CN1Cc2ccccc2C1=O)Nc1cc(F)ccc1F,inactive,–
Cc1ccn(CCC(=O)N2c3ccccc3CC2C)n1 (stereo unspecified),"inconclusive: 50.1 µM [inhibitor, partial curve]",–
COC(=O)Cc1c(C)c2ccc(O)c(CN3CCCC(C)C3)c2oc1=O (stereo unspecified),"inconclusive: 89.1 µM [inhibitor, single point]",–
CCOC(=O)Cc1csc(NC(=O)CSc2nccn2C)n1,inactive,–
Cc1ccc(C)c(NC(=O)N2CC=C(c3c[nH]c4ccccc34)CC2)c1,"inconclusive: 79.4 µM [inhibitor, single point]",–
CN(C(=O)CCN1C(=O)/C(=C/c2ccccc2F)SC1=S)C1CCS(=O)(=O)C1 (stereo unspecified),"inconclusive: 79.4 µM [inhibitor, single point]",–
Cc1[nH]c2ccccc2c1/C=N/NC(=O)CNC(=O)Cc1ccccc1,"inconclusive: 2.51 µM [inhibitor, partial curve, poor fit]",–
O=C(CCn1cnnn1)Nc1ccc(Cl)cc1Cl,"inconclusive: 79.4 µM [inhibitor, single point]",–
COc1ccc(OCC(=O)Nc2cc3c(cc2C(=O)O)OCCCO3)cc1,inactive,–
Cc1cc(C)c2nc(-c3ccco3)cc(C(=O)O)c2c1,active: 39.8 µM,–
COC(=O)CCCCCN1C(=O)/C(=C\c2ccncc2)SC1=S,active: 25.1 µM,–
Cc1ccc(-c2[nH]nc3c2C(c2cccnc2)C(C#N)=C(N)O3)cc1 (stereo unspecified),"inconclusive: 89.1 µM [inhibitor, single point]",–
Cc1cc(OCC(=O)Nc2ccc(N3CCCC3)cc2)cc(C)c1Cl,"inconclusive: 44.7 µM [inhibitor, partial curve]",–
COc1c(N2CCN(C(=S)Nc3ccccc3F)C(C)C2)c(F)cc2c(=O)c(C(=O)O)cn(C3CC3)c12 (stereo unspecified),"inconclusive: 79.4 µM [inhibitor, single point]",–
Cc1ccc2c(CC(=O)N3CCN(S(=O)(=O)c4ccccc4)CC3)coc2c1,"inconclusive: 89.1 µM [inhibitor, single point]",–
COCCN(CCOC)S(=O)(=O)c1ccc(C(=O)Nc2nnc(C)o2)cc1,active: 14.1 µM,–
C=CCn1c(O)c(N=NC(=O)CNC(=O)/C=C/c2ccco2)c2ccccc21,"inconclusive: 50.1 µM [inhibitor, partial curve]",–
CN1CCN(/N=C/c2ccc(Cl)c(Cl)c2)CC1,"inconclusive: 44.7 µM [inhibitor, partial curve]",–
